The text below walks through data of ChEMBL document CHEMBL5606458, “ASAP - ZIKV NS2B-NS3 protease fluorescence single point” (2024).

The target in the assay is Nonstructural protein 3 (Zika virus) (UniProt A0A024AXB9).
The mark [1] stands for this setting: PRVABC59, Concentration 15.0 uM, Number of replicates 1.0.
The mark [2] stands for this setting: PRVABC59, Concentration 50.0 uM, Number of replicates 1.0.

In all, about 2,700 compounds went through this assay and about 160 (5.9%) showed an effect of 50% or more. The list shows a part of the results.

Sequence of UniProt A0A024AXB9 (A0A024AXB9 as listed by the source): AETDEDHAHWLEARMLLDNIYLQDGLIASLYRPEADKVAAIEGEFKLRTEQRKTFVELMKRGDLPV

What is called inhibition is the drop in the measured response relative to a control, in per cent. On to `Cn1cc(NC(=O)c2ccccc2C(F)(F)F)c(-c2ccc3cn[nH]c3c2)n1`, for which the inhibition reads like this: (PRVABC59, Concentration 49.5 uM, Number of replicates 2.0, Standard deviation 2.892317195229066 %) 0.121%; (PRVABC59, Concentration 99.01 uM, Number of replicates 2.0, Standard deviation 1.6799902430178184 %) 1.23%; (PRVABC59, Concentration 198.0 uM, Number of replicates 2.0, Standard deviation 2.235789830147722 %) -1.51%.

Regarding `Cn1cc(NS(=O)(=O)c2ccc(Oc3ccccc3)cc2)cn1`, the inhibition worked out at 1.71% (PRVABC59, Concentration 49.5 uM, Number of replicates 2.0, Standard deviation 0.025441439341419052 %); 5.19% (PRVABC59, Concentration 99.01 uM, Number of replicates 2.0, Standard deviation 1.5264829887372622 %); 9.41% (PRVABC59, Concentration 198.0 uM, Number of replicates 2.0, Standard deviation 1.5900859548880821 %).

Regarding `O=C(NCCCN1CCS(=O)(=O)CC1)c1cc(Cl)ccc1NS(=O)(=O)c1ccc(Oc2ccccc2Cl)cc1`, under setting [1], the inhibition was -0.607%.

Regarding `O=Cc1ccc(N2CCC(C(=O)N3CCN(c4ccc(O)cc4)CC3)CC2)cc1`, the inhibition under setting [2] came to 37%.

As for `OB1CCc2ccc(N3CC[C@@H](O)C3)cc2O1`, the inhibition by setting is: (PRVABC59, Concentration 49.5 uM, Number of replicates 2.0, Standard deviation 2.057854186079089 %) -1.96%; (PRVABC59, Concentration 99.01 uM, Number of replicates 2.0, Standard deviation 0.9026496136637511 %) -4.87%.

Turning to `O=C(c1cc(Cl)ccc1NS(=O)(=O)c1ccc(Oc2ccccc2Cl)cc1)N(Cc1ccccc1)[C@H]1CCS(=O)(=O)C1`, the inhibition under setting [1] is 18.6%.

As to `Cn1ccnc1[C@@H](O)C1CCN(C(=O)C2CCN(c3ccc(C=O)cc3)CC2)CC1`, under setting [2], the inhibition came out at 25.2%.

Regarding `c1ccn2c(CNCC3CCOCC3)nnc2c1`, the inhibition was -1.69% (PRVABC59, Concentration 49.5 uM, Number of replicates 2.0, Standard deviation 1.8796463523944162 %); -2.09% (PRVABC59, Concentration 99.01 uM, Number of replicates 2.0, Standard deviation 2.0631141970669455 %); -4.01% (PRVABC59, Concentration 198.0 uM, Number of replicates 2.0, Standard deviation 1.9030296768293513 %).

With `COc1ccc(CN(C)C(=O)c2cc(Cl)ccc2NS(=O)(=O)c2ccc(Oc3ccccc3Cl)cc2)c(OC)c1`, the inhibition under setting [1] came out at 10.2%.

For the molecule `Cc1nn(CC(=O)Nc2ccc(F)cc2)cc1C1CCNCC1`, the inhibition is -1.55% (PRVABC59, Concentration 49.5 uM, Number of replicates 2.0, Standard deviation 0.8989522392312843 %); 0.347% (PRVABC59, Concentration 99.01 uM, Number of replicates 2.0, Standard deviation 0.7622452693103791 %); 3.02% (PRVABC59, Concentration 198.0 uM, Number of replicates 2.0, Standard deviation 0.8513118861917833 %).

As to `C[C@]12CC3CC(NC(=O)C4CCN(c5ccc(C=O)cc5)CC4)(C1)C[C@](C)(C3)C2`, the inhibition under setting [2] was 29.3%.

In the case of `CNC(=O)[C@@H](C)CNS(=O)(=O)c1ccc(Oc2ccccc2Cl)cc1`, the inhibition was -1.63% (PRVABC59, Concentration 49.5 uM, Number of replicates 2.0, Standard deviation 1.6230518289473026 %); 2.05% (PRVABC59, Concentration 99.01 uM, Number of replicates 2.0, Standard deviation 0.17641861567168832 %); 6.39% (PRVABC59, Concentration 198.0 uM, Number of replicates 2.0, Standard deviation 0.3217045344601375 %).

`O=C(CNC(=O)c1cc(Cl)ccc1NS(=O)(=O)c1ccc(Oc2ccccc2Cl)cc1)NCC(F)(F)F`: the inhibition under setting [1] was -2.31%.

On to `CN1CCN(Cc2cccc(CNC(=O)C3CCN(c4ccc(C=O)cc4)CC3)c2)CC1`, for which the inhibition (PRVABC59, Concentration 10.0 uM, Number of replicates 1.0) was determined as 20.2%.

In the case of `Cc1cnccc1NC(=O)c1csc(-c2ccco2)n1`, the inhibition is, setting by setting: (PRVABC59, Concentration 49.5 uM, Number of replicates 2.0, Standard deviation 1.7557463767431223 %) -2.24%; (PRVABC59, Concentration 99.01 uM, Number of replicates 2.0, Standard deviation 0.7246370463282292 %) -1.2%; (PRVABC59, Concentration 198.0 uM, Number of replicates 2.0, Standard deviation 0.8703816598057346 %) 0.479%.

In the case of `O=Cc1ccc(N2CCC(C(=O)Nc3ccc(Cl)c(Cl)c3)CC2)cc1`, the inhibition under setting [2] worked out at 22.8%.

For `Cc1ncc(CO)c(CNC(=O)c2cc(Cl)ccc2NS(=O)(=O)c2ccc(Oc3ccccc3Cl)cc2)c1O`, the inhibition under setting [1] worked out at 3.51%.

Consider `O=Cc1ccc(N2CCC(C(=O)N3CCN(CC4CCCCC4)CC3)CC2)cc1`, for which the inhibition under setting [2] came to 18.8%.

For `CCCN(C[C@H](O)COc1ccccc1C(=O)CCc1ccccc1)C(=O)c1cc(Cl)ccc1NS(=O)(=O)c1ccc(Oc2ccccc2Cl)cc1`, the inhibition under setting [1] came out at 18.5%.

For the molecule `COc1cc(Cl)c(C)cc1NC(=O)c1cc(Cl)ccc1NS(=O)(=O)c1ccc(Oc2ccccc2Cl)cc1`, under setting [1], the inhibition was found to be 22.4%.

Consider `O=C(c1cc(Cl)ccc1NS(=O)(=O)c1ccc(Oc2ccccc2Cl)cc1)N(Cc1ccccn1)Cc1ccccn1`, for which, under setting [1], the inhibition turned out to be 19.2%.

Turning to `C[C@@H](CCNC(=O)C1CCN(c2ccc(C=O)cc2)CC1)N1CCOCC1`, the inhibition under setting [2] was determined as 20.2%.

Consider `CC1(C)[C@H]2CC[C@]1(C)[C@H](NC(=O)C1CCN(c3ccc(C=O)cc3)CC1)C2`, for which the inhibition under setting [2] is -4.03%.

As for `CNC(=O)c1nc(C)c(C)c(N2CC[C@@H](NC(=O)[C@H]3CCCc4[nH]cnc43)C2)n1`, the inhibition reads like this: (PRVABC59, Concentration 49.5 uM, Number of replicates 2.0, Standard deviation 3.6106463334749126 %) 1.16%; (PRVABC59, Concentration 99.01 uM, Number of replicates 2.0, Standard deviation 0.9072077110365072 %) -0.124%; (PRVABC59, Concentration 198.0 uM, Number of replicates 2.0, Standard deviation 0.929433261542848 %) 0.354%.

In the case of `Cc1cccc(C)c1NC(=O)CN1CCN(C(=O)C2CCN(c3ccc(C=O)cc3)CC2)CC1`, under setting [2], the inhibition came to 19.9%.

As to `NCc1cccc(NC(=O)[C@@H](NC(=O)OCc2ccccc2)c2ccccc2)c1`, the inhibition is 2.16% (PRVABC59, Concentration 49.5 uM, Number of replicates 2.0, Standard deviation 1.7037965084433824 %); 4.7% (PRVABC59, Concentration 99.01 uM, Number of replicates 2.0, Standard deviation 2.2842108323836983 %); 10.7% (PRVABC59, Concentration 198.0 uM, Number of replicates 2.0, Standard deviation 0.6006977898141231 %).

`O=C(NC1CCN(CC2CCOCC2)CC1)c1cc(Cl)ccc1NS(=O)(=O)c1ccc(Oc2ccccc2Cl)cc1`: under setting [1], the inhibition was -6.87%.

For `O=C(NCCc1nnc[nH]1)[C@@]1(c2ccc(F)cc2)CCCNC1`, the inhibition is -0.912% (PRVABC59, Concentration 50.0 uM, Number of replicates 2.0, Standard deviation 2.5634207646858784 %); -0.194% (PRVABC59, Concentration 100.0 uM, Number of replicates 2.0, Standard deviation 2.4352497117001874 %); 0.129% (PRVABC59, Concentration 200.0 uM, Number of replicates 2.0, Standard deviation 1.6405892590532312 %).

On to `C[C@@H]1CN(C2CCN(C(=O)c3cc(Cl)ccc3NS(=O)(=O)c3ccc(Oc4ccccc4Cl)cc3)CC2)C[C@H](C)O1`, for which the inhibition under setting [1] is -1.5%.

Consider `O=C(c1cc(Cl)ccc1NS(=O)(=O)c1ccc(Oc2ccccc2Cl)cc1)N1CCn2c(nnc2C(F)(F)F)C1`, for which the inhibition under setting [1] came to 6.88%.

In the case of `COC(=O)c1cncc(C(=O)Nc2ccncc2C)c1`, the inhibition (PRVABC59, Concentration 49.5 uM, Number of replicates 2.0, Standard deviation 3.334315410247663 %) was -7.09%; the inhibition (PRVABC59, Concentration 99.01 uM, Number of replicates 2.0, Standard deviation 3.5682000737521973 %) is -6.79%; the inhibition (PRVABC59, Concentration 198.0 uM, Number of replicates 2.0, Standard deviation 3.2821258106735933 %) is -6.5%.

For `O=C(N[C@@H]1CCCN(Cc2ccccc2)C1)c1cc(Cl)ccc1NS(=O)(=O)c1ccc(Oc2ccccc2Cl)cc1`, the inhibition under setting [1] came to 10.8%.

`O=C(Nc1ccccc1)c1cc(Cl)ccc1NS(=O)(=O)c1ccc(Oc2ccccc2Cl)cc1`: the inhibition under setting [1] is 54.2%.

Turning to `O=C(c1cc(Cl)ccc1NS(=O)(=O)c1ccc(Oc2ccccc2Cl)cc1)N1CCN(c2nsc3ccccc23)CC1`, the inhibition under setting [1] stood at 13%.

Take `CC(C)Nc1nc2ccc(C(=O)Nc3cc(-c4nccn4C)n[nH]3)cc2[nH]1`: the inhibition came to 0.48% (PRVABC59, Concentration 49.5 uM, Number of replicates 2.0, Standard deviation 1.5841940362005018 %); 2.37% (PRVABC59, Concentration 99.01 uM, Number of replicates 2.0, Standard deviation 1.722618743079317 %); 5.77% (PRVABC59, Concentration 198.0 uM, Number of replicates 2.0, Standard deviation 0.5383180937944834 %).

On to `O=c1c2ccccc2ncn1C1CN(Cc2c[nH]c3ccccc23)C1`, for which the inhibition turned out to be 1.21% (PRVABC59, Concentration 99.01 uM, Number of replicates 2.0, Standard deviation 5.715692935887529 %) and 8.06% (PRVABC59, Concentration 198.0 uM, Number of replicates 2.0, Standard deviation 4.94445112673456 %).

With `COC(=O)[C@@H](C)NC(=O)Cc1cc(OC)nc(N2CCNCC2)n1`, the inhibition by setting is: (PRVABC59, Concentration 49.5 uM, Number of replicates 2.0, Standard deviation 2.535411528598933 %) 0.703%; (PRVABC59, Concentration 99.01 uM, Number of replicates 2.0, Standard deviation 2.9676017926474083 %) 2.6%; (PRVABC59, Concentration 198.0 uM, Number of replicates 2.0, Standard deviation 1.32465504962272 %) 4.63%.

Consider `CNC(=O)c1cc(Cl)ccc1NS(=O)(=O)c1cccc(CN(C)C)c1`, for which the inhibition is, setting by setting: (PRVABC59, Concentration 49.5 uM, Number of replicates 2.0, Standard deviation 0.5541621056740927 %) -3.61%; (PRVABC59, Concentration 99.01 uM, Number of replicates 2.0, Standard deviation 0.1639655706358715 %) -4.04%; (PRVABC59, Concentration 198.0 uM, Number of replicates 2.0, Standard deviation 0.3735923625988694 %) -6.78%.
